Measurements as given in PubChem BioAssay AID1508642 (National Center for Advancing Translational Sciences (NCATS), 2021).
The campaign covered roughly 43,000 compounds. About 200 (0.47%) were called active. Roughly 12% stayed inconclusive and do not appear here. The call rests on the fitted dose curve; in most records, active means well fitted cell-killing curve with a large enough effect; inconclusive means small, poorly fitted or top-dose-only effect, or effect the other way; inactive means flat fitted curve, though single readings scatter. The list shows a part of the results.

Test: Cell viability qHTS assay in S16 Pmp22-F2sN cells; further: nearly all actives have a fitted effect of over 65% in size
Conditions: S16 Pmp22-F2sN Schwann cells (luciferase reporters placed in the Pmp22 gene) viability, CellTiter-Glo, 24 h; series mostly up to 57.5 µM; activity change, negative = cytotoxicity: at the top concentration
Summary of the method: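 Rat S16 Schwann reporter line, 24 h treatment with library compounds delivered at 23 nL per well. Cell viability by CellTiter-Glo luminescence.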
On the % scale 0 is the no-effect control and ±100 the full control effect.

SMILES	activity change, negative = cytotoxicity
CCOc1ccccc1CNC(=O)c1ccc2c(c1)sc1nc(-c3ccccc3)cn12	inactive: 8.88%
COc1ccc(CCNC(=O)CSC2=Nc3ccccc3C3=NC(CCC(=O)NCc4ccccc4)C(=O)N23)cc1OC (stereo not drawn)	inactive: -10.8%
Cc1noc2ncnc(N3CCCC(C(=O)NC(C)C)C3)c12 (stereo not drawn)	inactive: 4.39%
Cc1ccn2c(c1)nc(=O)c1cc(S(=O)(=O)N3CCCCC3)c(Cl)cc12	inactive: 8.12%
CCc1ccc(NC(=O)c2sc3nc(C)c(C(=O)Nc4ccc(C)cc4C)c(-c4ccco4)c3c2N)cc1	inactive: 1.45%
Cc1oc(-c2ccccc2)nc1CNC(=O)NC1CCCCC1	inactive: 1.82%
Cc1c(NC(=O)c2cc(-c3ccc(Br)cc3)on2)c(=O)n(-c2ccccc2)n1C	inactive: -2.62%
CCc1ccccc1NC(=O)CN(c1ccc(OC)cc1)S(=O)(=O)c1c(C)n[nH]c1C	inactive: -15.3%
Cc1cccc(-c2nc3scc(CCNS(=O)(=O)c4ccc(F)cc4C)n3n2)c1	inactive: -1.53%
CCOC(=O)c1c(NC(=O)/C=C/c2ccc(OCC)c(OC)c2)sc2c1CCC2	inactive: 13.2%
COc1ccc(OC)c(CNC(=O)c2cc3ccc4cccnc4c3[nH]2)c1	inactive: -5.58%
O=C(Cn1nnc2sc(-c3ccccc3)cc2c1=O)Nc1cccc(C(F)(F)F)c1	inactive: 17.9%
CC(C)(C)OC(=O)N1CCC(c2nnc(SCc3ccccc3F)o2)CC1	inactive: 1.97%
O=c1c2oc3ccccc3c2n(Cc2ccccc2)c(=O)n1Cc1ccco1	inactive: -0.998%
COc1ccc(C)cc1NC(=O)C(=O)NCCc1csc2nc(-c3ccccc3F)nn12	inactive: 4.89%
Cc1ccccc1Nc1c(-c2c[nH]c3ccccc23)nc2ccccn12	inactive: 2.29%
CCn1nnc2cc(C(=O)Nc3ccc(C)cc3Br)ccc21	inactive: -1.81%
COc1cc2c(=O)c(S(=O)(=O)c3ccc(C(C)C)cc3)cn(Cc3ccccc3C)c2cc1OC	inactive: -17.9%
Cc1ccc(C(=O)NCC(c2ccco2)S(=O)(=O)c2ccccc2)cc1C (stereo not drawn)	inactive: 3.84%
CCOC(=O)c1c(C)c(-c2ccccc2)n(CC(=O)NCc2ccccc2)c1C	inactive: 2.42%
CCOC(=O)c1ccc(NS(=O)(=O)c2ccc3c(c2)CCN3C(=O)CC)cc1	inactive: -11.3%
COc1ccc(N2CCN(S(=O)(=O)c3cc(Br)cc4c3N(C(=O)C3CC3)CC4)CC2)cc1	inactive: 8.51%
CC(C)(C)OC(=O)N1CCC(c2c(C(=O)N3CCN(c4ccccn4)CC3)cnn2-c2cccc(F)c2)CC1	inactive: -0.388%
Cc1ccc(NC(=O)Cn2c(=O)n(Cc3ccco3)c(=O)c3sc4ccccc4c32)c(C)c1	inactive: 17.7%

SMILES	activity change, negative = cytotoxicity
COc1ccc(-n2nc(C(=O)N3CCCCC3)c3c4ccccc4n(C)c3c2=O)cc1Cl	inactive: 0.776%
CCOC(=O)c1cc(-c2ccccc2)n(CCC(=O)NCCc2ccc(C)cc2)c1C	inactive: 2.31%
COc1ccc(OC)c(NC(=O)COCc2cc(-c3ccco3)on2)c1	inactive: -6.04%
O=C(CSc1nccn1Cc1ccccc1)Nc1nc2ccccc2s1	inactive: 6.88%
Cc1cc(C)c(Cn2c(=O)n(Cc3ccccc3)c(=O)c3c(C)c(C)sc32)c(C)c1	inactive: 2.47%
O=C(Nc1cccc(C(F)(F)F)c1)c1cc2nc(-c3ccco3)cc(C(F)(F)Cl)n2n1	inactive: 0.297%
O=C(Nc1nc(-c2ccccc2)ns1)c1ccc(Cl)cc1	inactive: -0.17%
Cc1cccc(NC(=O)C(NS(=O)(=O)c2cccc3nsnc23)c2ccccc2)c1C (stereo not drawn)	inactive: 0.929%
COc1ccccc1N1CCN(C(=O)c2ccc3c(c2)N(Cc2cc(C)ccc2C)C(=O)c2ccccc2S3(=O)=O)CC1	inactive: -0.257%
CCOC(=O)N1CCc2c(sc(NCc3cccs3)c2C(=O)Nc2cc(Cl)ccc2OC)C1	inactive: -5.01%
CCN(CC)c1ccc(NC(=O)C2CCN(S(=O)(=O)c3ccc4c(c3)oc(=O)n4C)CC2)c(C)c1	inactive: 10%
Cc1cc(C)cc(-n2c(SCC(=O)NCc3ccc(F)cc3)nc3c([nH]c4ccccc43)c2=O)c1	inactive: -5.83%
COc1cc(NC(=O)CSc2nc(-c3ccccc3)no2)cc(OC)c1	inactive: -17.4%
CCOc1ccc(NC(=O)CN2C(=O)c3ccccc3Sc3ccc(C(=O)OC)cc32)cc1	inactive: 21.4%
O=C(C1CCC(Cn2c(=O)c3sccc3n(Cc3ccccc3F)c2=O)CC1)N1CCOCC1 (stereo not drawn)	inactive: -8.25%
COc1cccc(NC(=O)CN2C(=O)CC(c3ccco3)Sc3ccccc32)c1 (stereo not drawn)	inactive: 9.64%
COC(=O)c1sc(-c2ccccc2)cc1NC(=O)c1cccc(Cl)c1	inactive: -2.39%
CCc1ccc(NC(=O)N2CCN(Cc3nc4ccc(C)cc4o3)CC2)cc1	inactive: -15.6%
CCN(CC)C(=O)CN1C(=O)COc2ccc(S(=O)(=O)N3CCOCC3)cc21	inactive: 0.584%
Cc1ccc(N2CCN(C(=O)c3cn(C)c4ccc(S(=O)(=O)N5CCCC5)cc4c3=O)CC2C)cc1 (stereo not drawn)	inactive: 2.29%
CC(=O)Nc1ccc(S(=O)(=O)NCC2CCC(C(=O)NCc3ccccc3)CC2)cc1 (stereo not drawn)	inactive: 0.111%
COc1ccc(NC(=O)Cn2nnc(C(=O)NCc3ccco3)c2N)c(OC)c1	inactive: -8.71%
COc1ccccc1NC(=O)c1c(C)cc(C)nc1SCC(=O)Nc1ccc(C)cc1	inactive: -19.9%
CN(C)c1ccc(CNC(=O)C2CCCN(S(=O)(=O)c3ccc4c(ccn4C)c3)C2)cc1 (stereo not drawn)	inactive: -9.43%

SMILES	activity change, negative = cytotoxicity
CCOc1ccccc1NC(=O)Cn1c(=O)oc2cc(S(=O)(=O)NCc3ccccc3)ccc21	inactive: -24%
CCOC(=O)c1sc(NC(=O)C(C)Oc2ccc(OC)cc2)c(C(=O)OCC)c1C (stereo not drawn)	inactive: 1.63%
COc1ccc(C(=O)Nc2cc(-c3ccccc3)nn2-c2ccccc2)cc1	inactive: 1.02%
CCOC(=O)c1cccc(NC(=O)c2cc3cc4cc(OC)ccc4nc3s2)c1	inactive: 8.81%
Cc1ccc(NC(=O)COc2ccc(-c3nn(C)c(=O)c4ccccc34)cc2)cc1	inactive: 21.3%
COc1ccc(C)cc1NC(=O)CN1C(=O)COc2ccc(S(=O)(=O)N3CCOCC3)cc21	inactive: 9.03%
CCN1CCC(N(Cc2cccc(OC)c2)C(=O)Nc2cccc(C)c2C)CC1	inactive: 1.63%
CC1=Nc2cc(C(=O)NCc3ccc(C)cc3)ccc2Sc2ccc(Cl)cc21	inactive: -5.1%
COc1ccc(C2N=C(N)Nc3nc4ccccc4n32)c(OC)c1OC (stereo not drawn)	inactive: -1.45%
COC(=O)C1=C(C)NC(=O)C1(NC(=O)c1ccc(Cl)cc1)C(F)(F)F (stereo not drawn)	inactive: 1.53%
O=C(Cn1c(=O)oc2cc(S(=O)(=O)N3CCCC3)ccc21)NCc1ccc(Cl)cc1	inactive: -14.7%
Cc1ccc(NC(=O)c2cn3c4c(ccc(Cl)c4c2=O)OC(C)C3)cc1C (stereo not drawn)	inactive: 4.23%
CCOCCCNC(=O)c1cc2c(=O)n(C)c3ccccc3c2n1C	inactive: 0.475%
COc1ccc(NC(=O)Cn2c(=O)n(-c3cccc(C)c3)c(=O)c3c2c2cc(C)ccc2n3C)cc1Cl	inactive: 10.7%
O=C(C1CCC(CNS(=O)(=O)c2ccc(Br)s2)CC1)N1CCN(c2ccccc2Cl)CC1 (stereo not drawn)	inactive: 7.58%
CCOc1cc2sc(N3CCC(C(=O)Nc4ccccc4C(=O)OC)CC3)nc2cc1Br	inactive: 4.04%
Cc1ncc(CO)c2c1Oc1nc(-c3ccccc3)nc(SCC(=O)N3CCCCC3)c1C2	inactive: 0.82%
CCN(CC)C(=O)Cn1c(=O)n(Cc2ccc(C(=O)NCc3ccc(C)cc3)cc2)c(=O)c2ccccc21	inactive: 18.7%
COc1ccc(N2CC(NC(=O)C3CC3)CC2=O)cc1 (stereo not drawn)	inactive: 10%
CC(=O)c1cccc(NC(=O)[C@H](Cc2ccccc2)N2Cc3ccccc3C2=O)c1	inactive: -12.9%
CCC(NC(=O)Nc1ccc(OC)c(OC)c1)c1c(-n2cccc2)sc2c1CCN(C)C2 (stereo not drawn)	inactive: 4.73%
Cc1cccc(NC(=O)C2CCCN(S(=O)(=O)c3c(C)[nH]c(=O)[nH]c3=O)C2)c1C (stereo not drawn)	inactive: -2.31%
COc1cccc(NC(=O)CSc2nc(=O)n(Cc3ccccn3)c3c2CCC3)c1	inactive: 6.52%
O=c1oc2ccc3ccccc3c2cc1-c1nnc(Nc2ccc(Cl)cc2Cl)s1	inactive: 1.8%

SMILES	activity change, negative = cytotoxicity
COc1ccc(CCNC(=O)c2ccc3c(c2)N=C(C)c2cc(C)ccc2S3)cc1OC	inactive: -2.99%
CCc1ccc(NC(=O)Cn2c(=O)c(CNc3ccccc3)cc3cc(OC)c(OC)cc32)cc1	inactive: -0.309%
COc1ccc2c(c1)c1c(c(=O)n(-c3cccc(Cl)c3)c(=O)n1CC(=O)NCC1CCCO1)n2C (stereo not drawn)	inactive: -1.18%
CCOc1ccc(NC(=O)CSC2=Nc3ccccc3C3=NC(CCC(=O)NCc4cccs4)C(=O)N23)cc1 (stereo not drawn)	inactive: 14.2%
CCOc1ccc(-n2cc(-c3ccccc3)c3c(NC4CCCCC4)ncnc32)cc1	inactive: -15.6%
Cc1nn(-c2ccccc2)c(OC(=O)c2ccccc2Cl)c1S(=O)(=O)c1ccccc1	inactive: 21.3%
CCOC(=O)c1[nH]c(C)c(CCC(=O)Nc2cccc(C(F)(F)F)c2)c1C	inactive: 0.299%
COc1cc(CNCCSc2nnnn2C)ccc1OCc1ccc(F)cc1	inactive: -12.5%
CC(CNC(=O)c1nnc(Cc2cccc(F)c2)o1)c1ccccc1 (stereo not drawn)	inactive: 1.92%
COCCNC(=O)Cn1cnc2sc(C)c(S(=O)(=O)N3CCN(c4ccccc4OC)CC3)c2c1=O	inactive: 6.55%
Cc1ccc(CCNC(=O)c2ccc3c(c2)N(Cc2ccccc2F)C(=O)c2ccccc2S3=O)cc1 (stereo not drawn)	inactive: -0.6%
CCOC(=O)c1cc(-c2ccccc2)n(CC(=O)Nc2ccccc2OCC)c1C	inactive: 9.27%
Cc1cccc(C)c1NC(=O)CCCn1c(=O)c2cccn2c2ccccc21	inactive: -2.64%
COc1ccc(-c2nc(CCNC(=O)c3ccccc3)cs2)cc1OC	inactive: -11.7%
CCOC(=O)c1c(S(=O)(=O)NCC(=O)Nc2ccc(C(C)=O)cc2)c(C)n(C)c1C	inactive: 5.21%
Fc1ccc(-c2csc(=Nc3cccc(C(F)(F)F)c3)n2Cc2ccc3c(c2)OCO3)cc1	inactive: -2.11%
CC(=O)N1CCCC1c1nc2ccccc2n1Cc1ccc(F)cc1 (stereo not drawn)	inactive: -3.3%
COc1cc(NC(=O)CN2C(=O)COc3ccc(S(=O)(=O)NC4CCCC4)cc32)cc(OC)c1	inactive: -7.17%
Cc1ccc(Cl)cc1-n1ncc2c(Nc3ccc4c(c3)OCCO4)ncnc21	inactive: 12.7%
O=C(c1ccc2c(c1)N(Cc1c(F)cccc1Cl)C(=O)c1ccccc1S2)N1CCCC1	inactive: 10.3%
CCCn1c2ccccc2c2cnn(CC(=O)NCCCN(CC)c3ccccc3)c(=O)c21	inactive: 1.19%
